{"source": "the supplement of paper PMC4604168 (melanoma cell lines)", "note": "The other results are listed elsewhere or left out. Single values are uncertain, as repeats are few or missing.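 Note: cells treated in 1,536-well plates, then fixed and DAPI-stained, with nuclei counted from automated high-throughput microscope images.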"}
{"test_system": "SkMel30", "test": "cell count relative to DMSO control; melanoma cells; higher = more viable cells", "details": "library dose: standard library concentration; 72 h; first compound 2 µM", "units": {"cell count": "%"}}
{"smiles": "Cn1sc(=O)n(Cc2ccccc2)c1=O", "note": "+ COc1ccc(Cl)c(Nc2nc3ccccc3nc2NS(=O)(=O)c2cccc(NC(=O)C(C)(C)N)c2)c1 [XL147] (partner dose 4 µM)", "cell count": 97.7}
{"smiles": "CCCCCCCCCCCCCCCCCCOP(=O)([O-])OC1CC[N+](C)(C)CC1", "note": "[Perifosine] + Cn1nnc2c(C(N)=O)ncn2c1=O [temozolomide] (partner dose 10 µM)", "cell count": 81}
{"smiles": "CCCCCCCCCCCCCCCCCCOP(=O)([O-])OC1CC[N+](C)(C)CC1", "note": "[Perifosine] + Clc1ccc(Nc2nnc(Cc3ccncc3)c3ccccc23)cc1 [vatalanib] (partner dose 10 µM)", "cell count": 102}
{"smiles": "C[C@@H](N)c1ccc(C(=O)Nc2ccnc3[nH]ccc23)cc1", "note": "+ COc1cc(Nc2ncc(F)c(Nc3ccc4c(n3)NC(=O)C(C)(C)O4)n2)cc(OC)c1OC [Tamatinib] (partner dose 2 µM)", "cell count": 68.8}
{"smiles": "C[C@@H](N)c1ccc(C(=O)Nc2ccnc3[nH]ccc23)cc1", "note": "+ COc1cc2c(Oc3ccc4[nH]c(C)cc4c3F)ncnc2cc1OCCCN1CCCC1 [cediranib] (partner dose 2 µM)", "cell count": 114}
{"smiles": "C[C@@H](N)c1ccc(C(=O)Nc2ccnc3[nH]ccc23)cc1", "note": "+ CCCCCCCCc1ccc(CCC(N)(CO)CO)cc1 [fingolimod] (partner dose 10 µM)", "cell count": 11.3}
{"smiles": "Cn1sc(=O)n(Cc2ccccc2)c1=O", "note": "+ C[C@]1(O)C[C@@H](c2nc(-c3ccc4ccc(-c5ccccc5)nc4c3)c3c(N)nccn32)C1 [OSI906] (partner dose 2 µM)", "cell count": 95.5}
{"smiles": "Cn1sc(=O)n(Cc2ccccc2)c1=O", "note": "+ NC(=O)c1ccc(N(C(N)=O)c2c(F)cccc2F)nc1-c1ccc(F)cc1F [VX702] (partner dose 2 µM)", "cell count": 74.1}
{"smiles": "C[C@@H](N)c1ccc(C(=O)Nc2ccnc3[nH]ccc23)cc1", "note": "+ Cn1cnc2c(F)c(Nc3ccc(Br)cc3Cl)c(C(=O)NOCCO)cc21 [selumetinib] (partner dose 0.075 µM)", "cell count": 53}
{"smiles": "CCCCCCCCCCCCCCCCCCOP(=O)([O-])OC1CC[N+](C)(C)CC1", "note": "[Perifosine] + CC(C)C[C@H](NC(=O)[C@H](Cc1ccccc1)NC(=O)c1cnccn1)B(O)O [Bortezomib] (partner dose 0.005 µM)", "cell count": 20}
{"smiles": "C[C@@H](N)c1ccc(C(=O)Nc2ccnc3[nH]ccc23)cc1", "note": "+ CNC(=O)c1cc(Oc2ccc(NC(=O)Nc3ccc(Cl)c(C(F)(F)F)c3)cc2)ccn1 [sorafenib] (partner dose 2 µM)", "cell count": 82.3}
{"smiles": "CCCCCCCCCCCCCCCCCCOP(=O)([O-])OC1CC[N+](C)(C)CC1", "note": "[Perifosine] + C[C@]1(O)C[C@@H](c2nc(-c3ccc4ccc(-c5ccccc5)nc4c3)c3c(N)nccn32)C1 [OSI906] (partner dose 2 µM)", "cell count": 101}
{"smiles": "CCCCCCCCCCCCCCCCCCOP(=O)([O-])OC1CC[N+](C)(C)CC1", "note": "[Perifosine] + NC1(c2ccc(-c3nc4ccn5c(=O)[nH]nc5c4cc3-c3ccccc3)cc2)CCC1 [MK2206] (partner dose 2 µM)", "cell count": 101}
{"smiles": "CCCCCCCCCCCCCCCCCCOP(=O)([O-])OC1CC[N+](C)(C)CC1", "note": "[Perifosine] + O=c1[nH]nc(Sc2ncc([N+](=O)[O-])s2)n1-c1ccc2c(c1)OCCO2 [BI78D3] (partner dose 1 µM)", "cell count": 87.6}
{"smiles": "C[C@@H](N)c1ccc(C(=O)Nc2ccnc3[nH]ccc23)cc1", "note": "+ NC1(c2ccc(-c3nc4ccn5c(=O)[nH]nc5c4cc3-c3ccccc3)cc2)CCC1 [MK2206] (partner dose 2 µM)", "cell count": 87.7}
{"smiles": "CCCCCCCCCCCCCCCCCCOP(=O)([O-])OC1CC[N+](C)(C)CC1", "note": "[Perifosine] + Cc1cn(-c2cc(NC(=O)c3ccc(C)c(Nc4nccc(-c5cccnc5)n4)c3)cc(C(F)(F)F)c2)cn1 [nilotinib] (partner dose 1 µM)", "cell count": 92.6}
{"smiles": "Cn1sc(=O)n(Cc2ccccc2)c1=O", "note": "+ CN(c1ncccc1CNc1nc(Nc2ccc3c(c2)CC(=O)N3)ncc1C(F)(F)F)S(C)(=O)=O [PF562271] (partner dose 0.4 µM)", "cell count": 93.6}
{"smiles": "C[C@@H](N)c1ccc(C(=O)Nc2ccnc3[nH]ccc23)cc1", "note": "+ C=C(c1ccc(C(=O)O)cc1)c1cc2c(cc1C)C(C)(C)CCC2(C)C [Bexarotene] (partner dose 10 µM)", "cell count": 83.4}
{"smiles": "CCCCCCCCCCCCCCCCCCOP(=O)([O-])OC1CC[N+](C)(C)CC1", "note": "[Perifosine] + Cc1cc(Nc2cc(N3CCN(C)CC3)nc(/C=C/c3ccccc3)n2)n[nH]1 [ENMD2076] (partner dose 0.2 µM)", "cell count": 71.5}
{"smiles": "C[C@@H](N)c1ccc(C(=O)Nc2ccnc3[nH]ccc23)cc1", "note": "+ CN(NC(=O)CC(=O)NN(C)C(=S)c1ccccc1)C(=S)c1ccccc1 [STA4783] (partner dose 0.03 µM)", "cell count": 92.8}
{"smiles": "Cn1sc(=O)n(Cc2ccccc2)c1=O", "note": "+ COc1cc(Nc2ncc(F)c(Nc3ccc4c(n3)NC(=O)C(C)(C)O4)n2)cc(OC)c1OC [Tamatinib] (partner dose 2 µM)", "cell count": 84.2}
{"smiles": "CCCCCCCCCCCCCCCCCCOP(=O)([O-])OC1CC[N+](C)(C)CC1", "note": "[Perifosine] + OCc1c[nH]c2ccccc12 [Indole-3-carbinol] (partner dose 4 µM)", "cell count": 92.4}
{"smiles": "C[C@@H](N)c1ccc(C(=O)Nc2ccnc3[nH]ccc23)cc1", "note": "+ CS(=O)(=O)CCNCc1ccc(-c2ccc3ncnc(Nc4ccc(OCc5cccc(F)c5)c(Cl)c4)c3c2)o1 [lapatinib] (partner dose 4 µM)", "cell count": 71.8}
{"smiles": "Cn1sc(=O)n(Cc2ccccc2)c1=O", "note": "+ O=C(O)c1ccc(-c2c[nH]c3ncc(-c4ccccc4)cc23)cc1C1CCCC1 [GSK650394] (partner dose 0.8 µM)", "cell count": 84.7}
{"smiles": "Cn1sc(=O)n(Cc2ccccc2)c1=O", "note": "+ Cn1nnc2c(C(N)=O)ncn2c1=O [temozolomide] (partner dose 10 µM)", "cell count": 87.4}
